The supplement of paper PMC7826260
This is one part of the list. Viral Rep nickase domains cut single-stranded DNA in vitro for 1 h at 37 °C with 3 µM enzyme; only the middle of the 90-letter strands is printed. The score is log2 (uncut reads / reads without enzyme); uncut sequences lie near 0, cut ones below; no hit call is given. Counts are relative to all reads; uncut strands gain when others are lost, and binding without cutting may add a little.

tested on: T1, Rep nickase domain of tomato golden mosaic virus; assay: uncleaved DNA left, log2 of reads against the no-enzyme library (log2 ratio); higher = less cleavage (more negative = more Rep cleavage of the k-mer); sequences stand for … in CTCGTCCG…ACCGGAGA
T1 sequence (Rep 1-124, printed without the tag): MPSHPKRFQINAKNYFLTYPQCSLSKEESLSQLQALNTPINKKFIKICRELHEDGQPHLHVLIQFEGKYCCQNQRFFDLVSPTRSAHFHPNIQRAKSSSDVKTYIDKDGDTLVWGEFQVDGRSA
Description: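 A pool of 90-nt single-stranded DNAs with seven random bases just before the constant AC of the nick site (name = the seven bases) was cut by 3 µM recombinant His6-SUMO-tagged Rep nickase domain (300 nM DNA, 50 mM HEPES pH 8.0, 50 mM NaCl, 1 mM MnCl2, 1 h, 37 °C, three replicates). Uncut DNA was amplified and sequenced.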

Sequence | uncleaved DNA left (log2)
ATTCCAC | -0.0781
CTTTAGA | -0.00965
AATTTTA | -0.0913
CACATGC | -0.166
CGTAAGA | 0.0515
GGACAAA | -0.018
GGGTCCG | 0.0759
TTGGTTT | -0.0152
CTCGACC | -0.0523
GCCTAAA | -0.0272
TCCCGCG | -0.111
TATGTCC | -0.141
GTGATCT | 0.107
AGCGGAC | 0.0436
GCTCAAA | -0.0578
TTTAGGA | 0.104
CTGCCGA | -0.0532
TAGGCAG | 0.0843
ATCTACG | -0.109
CAAAACT | -0.784

Sequence | uncleaved DNA left (log2)
CATGCAT | -0.187
TTTCCAC | -0.0659
ATCTTTT | -0.235
CAAAAAC | -0.0323
ACGTCTA | -0.0904
GCCAAGC | -0.0472
TAACACA | 0.0756
TTAGAAC | 0.0221
CTTTGGT | -0.105
AGGTGCA | 0.0315
CACTTCT | -0.272
GTACCCC | 0.14
AGGGATC | -0.0971
TCTCCAT | -0.0726
AGGTTCC | -0.158
GGATGTA | -0.0362
ATCGAAC | -0.0516
AGGTGTA | 0.0852
CCATTTT | -0.15
CCGAAGG | 0.132
